The campaign covered roughly 310,000 compounds. About 14,000 (4.5%) showed an effect of 50% or more. Effects have a minus sign here. The list shows a part of the results.
These compounds were tested against human ether-à-go-go-related gene (hERG) potassium channel (human, UniProt Q12809) (assay: primary screen, population patch clamp on CHO cells stably expressing hERG).
Chain of human ether-à-go-go-related gene (hERG) potassium channel (Q12809 whole entry, looked up): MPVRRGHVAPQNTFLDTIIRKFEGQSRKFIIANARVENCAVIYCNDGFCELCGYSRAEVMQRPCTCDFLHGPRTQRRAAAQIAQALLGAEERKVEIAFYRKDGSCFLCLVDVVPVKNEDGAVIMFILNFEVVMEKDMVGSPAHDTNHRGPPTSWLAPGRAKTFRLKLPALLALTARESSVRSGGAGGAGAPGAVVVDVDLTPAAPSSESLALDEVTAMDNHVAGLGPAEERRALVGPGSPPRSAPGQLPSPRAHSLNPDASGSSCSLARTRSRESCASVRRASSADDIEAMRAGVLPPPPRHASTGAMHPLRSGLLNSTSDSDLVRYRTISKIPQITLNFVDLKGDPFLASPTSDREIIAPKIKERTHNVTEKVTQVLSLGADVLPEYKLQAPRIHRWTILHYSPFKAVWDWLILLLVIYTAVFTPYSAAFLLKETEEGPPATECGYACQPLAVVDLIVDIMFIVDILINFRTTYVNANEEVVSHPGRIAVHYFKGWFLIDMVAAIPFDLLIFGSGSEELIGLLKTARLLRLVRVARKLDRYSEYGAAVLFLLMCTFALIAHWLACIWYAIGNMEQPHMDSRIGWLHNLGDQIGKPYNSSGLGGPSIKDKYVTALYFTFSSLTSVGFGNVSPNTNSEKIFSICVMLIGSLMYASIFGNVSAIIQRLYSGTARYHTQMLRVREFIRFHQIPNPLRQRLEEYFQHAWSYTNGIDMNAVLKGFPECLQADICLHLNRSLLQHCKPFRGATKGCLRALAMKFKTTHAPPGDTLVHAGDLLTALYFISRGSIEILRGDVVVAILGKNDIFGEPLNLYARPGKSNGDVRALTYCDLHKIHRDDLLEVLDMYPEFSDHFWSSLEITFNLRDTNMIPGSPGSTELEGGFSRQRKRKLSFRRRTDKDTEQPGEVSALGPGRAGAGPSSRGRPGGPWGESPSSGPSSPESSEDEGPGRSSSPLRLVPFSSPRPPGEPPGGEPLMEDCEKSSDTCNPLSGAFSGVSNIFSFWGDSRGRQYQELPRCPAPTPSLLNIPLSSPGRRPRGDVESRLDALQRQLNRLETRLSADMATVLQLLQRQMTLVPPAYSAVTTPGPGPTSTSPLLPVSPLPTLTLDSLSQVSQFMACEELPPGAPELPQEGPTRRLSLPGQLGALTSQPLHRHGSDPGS
In the case of O=C(CC(c1ccccc1)c1ccccc1O)NCCN1CCOCC1 (stereo not drawn), the “hERG current change (%, negative = inhibition) at 10uM” value is reported as 3.63%. With N/C(=N\OC(=O)CCCc1ccccc1)c1ccc(Br)cc1 the “hERG current change (%, negative = inhibition) at 10uM” value was 14.5%. With C=CCOC(=O)C1=C(C)OC(N)=C(C#N)C1c1ccc(OC)c(CSc2ccccn2)c1 (stereo not drawn) the “hERG current change (%, negative = inhibition) at 10uM” value was -0.628%. O=C(CCCC(=O)OCC(=O)c1ccc(Cl)cc1Cl)Nc1cc(C(F)(F)F)ccc1Cl was tested, and the “hERG current change (%, negative = inhibition) at 10uM” value was -3.09%. With O=C1C(=O)N(CCCO)C(c2ccccc2)/C1=C(\O)c1ccc(Br)cc1 (stereo not drawn) the “hERG current change (%, negative = inhibition) at 10uM” value was 16.7%. With O=C1NC(=O)N(Cc2ccco2)C(=O)/C1=C\c1ccc(-c2ccc(F)cc2)o1 the “hERG current change (%, negative = inhibition) at 10uM” value was 29.3%. In the case of CCOC(=O)c1ccc(NC(=O)CN2C(=O)C3C4C=CC(C4)C3C2=O)cc1 (stereo not drawn), the “hERG current change (%, negative = inhibition) at 10uM” value is reported as 2.3%. With O=C(O)CCS(=O)(=O)c1ccc(-c2ccccc2)cc1 the “hERG current change (%, negative = inhibition) at 10uM” value was 19.3%. In the case of COc1ccc(NC(=O)C2CCCN(S(=O)(=O)c3ccccc3)C2)c(OC)c1 (stereo not drawn), the “hERG current change (%, negative = inhibition) at 10uM” value is reported as -19.6%. For O=C(COc1ccc(Cl)cc1Cl)NC(=O)N1CCOCC1, the “hERG current change (%, negative = inhibition) at 10uM” value was -12.8%. O=C(Cc1csc(Nc2nc(=S)[nH]c3ccccc23)n1)NCCCN1CCN(c2cccc(Cl)c2)CC1 was tested, and the “hERG current change (%, negative = inhibition) at 10uM” value was 5.03%. With O=C(CSc1nnc(C2CCCCC2)n1Cc1ccccc1)NCc1ccco1 the “hERG current change (%, negative = inhibition) at 10uM” value was -25.8%. For CC(=O)c1ccc(NC(=O)c2ccn(C(=O)OCC(C)C)n2)cc1, the “hERG current change (%, negative = inhibition) at 10uM” value was -10.1%. In the case of c1ccc2c(c1)ccc1nnc(-c3ccc4c(c3)OCO4)n12, the “hERG current change (%, negative = inhibition) at 10uM” value is reported as 3.86%. For CC(=O)N1CN2CN(C(C)=O)CC(C(=O)c3ccc(Br)cc3)(C2)C1, the “hERG current change (%, negative = inhibition) at 10uM” value was -5.51%. For O=C(CCN1CCOCC1)N/N=C/c1cc(Br)cc(Br)c1O, the “hERG current change (%, negative = inhibition) at 10uM” value was 6.51%. For Cc1ccc(C(=O)NNC(=O)CSc2nnc(C(C)C)n2C)cc1, the “hERG current change (%, negative = inhibition) at 10uM” value was 20.9%. O=C(CCc1ccccc1)Nc1ccccc1C(=O)NCc1ccco1 was tested, and the “hERG current change (%, negative = inhibition) at 10uM” value was 0.64%. For CC(C)(C)c1nc(CN2CCOCC2)ccc1O.Cl, the “hERG current change (%, negative = inhibition) at 10uM” value was -15.2%. In the case of O=C(Nc1ccc2ccccc2c1)c1ccc(Cl)cc1, the “hERG current change (%, negative = inhibition) at 10uM” value is reported as 22.9%. In the case of COc1ccccc1CC(=O)NNS(=O)(=O)c1ccc([N+](=O)[O-])cc1, the “hERG current change (%, negative = inhibition) at 10uM” value is reported as 14.5%. For O=C(COC(=O)c1cccs1)NCCCc1ccccc1, the “hERG current change (%, negative = inhibition) at 10uM” value was 6.2%. In the case of CC(=Nc1ccc(C)c(C)c1)C1=C(O)CSC1=O, the “hERG current change (%, negative = inhibition) at 10uM” value is reported as 13.6%. With COCCC(=O)N1CCC(Oc2ccc(C(=O)N(C)CCCC3CCCC3)cc2)CC1 the “hERG current change (%, negative = inhibition) at 10uM” value was -30.4%.
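Note: peak tail current of the secondary pulse compared with the same well before compound.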
